Data taken from PubChem BioAssay AID686978 (National Center for Advancing Translational Sciences (NCATS), 2013).
About 64,000 (15%) of roughly 420,000 compounds were called active. This list was built around the results that the source calls inconclusive (neither active nor inactive); the mix of calls is not that of the screen. Calls come from the whole dose curve; as a rule, active = well fitted inhibition curve with a large enough effect; inconclusive = small, poorly fitted or top-dose-only effect; inactive = flat fitted curve, though single readings scatter. Potencies of inconclusive entries are left out as doubtful fits.

experiment: qHTS for Inhibitors of human tyrosyl-DNA phosphodiesterase 1 (TDP1): qHTS in cells in absence of CPT; conditions: DT40 Tdp1-/- hTDP1 cells, no CPT, ATP luminescence, 48 h; activity change, negative = growth inhibition: at 46.2 µM (top of the series) unless noted; note: nearly all actives have a fitted effect of over 55% in size
How it was run: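 A cellular qHTS used chicken DT40 cells lacking endogenous Tdp1 but carrying stably transfected human TDP1. Compounds were applied without camptothecin, and cell growth kinetics were judged by ATP-dependent luminescence after ≥48 hr.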
% is set by controls: 0 for no effect and ±100 for the full control effect; potency is the fitted concentration of half-maximal effect; tags give direction and shape of the fitted curve.

Structure (SMILES) | Potency | activity change, negative = growth inhibition
CCc1nnc(NC(=O)CCC(=O)N2CCN(Cc3ccc(Cl)cc3)CC2)s1 | active: 23.1 µM | 
CC(=O)Nc1ccccc1-c1ccccc1[N+](=O)[O-] | inactive | 
O=S1(=O)CC(N2CC=CC2)CN1C1CCCCC1 (stereo not given) | inconclusive [inhibitor, single point] | 
COc1ccc(CNC(=O)c2cccc(S(=O)(=O)N3CCN(c4ccc(F)cc4)CC3)c2)cc1 | inconclusive [inhibitor, single point] | 
CCCOc1ccc(-c2nc(N3CCN(CC)CC3)c3ccccc3n2)cc1 | active: 29.1 µM | 
COc1ccc(N(CC(=O)NCc2ccccc2)S(=O)(=O)c2c(C)n[nH]c2C)cc1 | inactive | 
COc1cc(/C=N/NC(=O)CCN2CCN(c3ccccc3)CC2)cc(OC)c1OC | inconclusive [inhibitor, single point] | 
C[C@H](CO)N1C[C@H](C)[C@@H](CN(C)S(=O)(=O)c2cn(C)cn2)Oc2ccc(NC(=O)C3CCCCC3)cc2C1=O | inactive | 
O=C(C1CCC(CNc2nc(=S)[nH]c3ccccc23)CC1)N1CCN(c2ccc(F)cc2)CC1 (stereo not given) | active: 4.61 µM | 
CN(C)/C=C/C(=O)c1ccncc1 | inactive | 
O=C(CC1SC(=Nc2ccccc2F)N(CCN2CCOCC2)C1=O)Nc1ccc(F)cc1F (stereo not given) | inconclusive [inhibitor, single point] | 
N#Cc1ccc(OCC(=O)Nc2cc(S(=O)(=O)N3CCOCC3)ccc2N2CCOCC2)cc1 | inconclusive [inhibitor, single point] | 
Cc1ccccc1C(=O)N1CCN(c2ccc(NC(=O)Cc3ccccc3)cc2)CC1 | inconclusive [inhibitor, partial curve, poor fit] | 
COCCn1c(SCC(=O)N2CCCC2)nc2c(c1=O)SCC2 | inactive | 
Cc1ccc(NC(=O)/C(=C/c2ccc([N+](=O)[O-])cc2)NC(=O)c2ccccc2)cc1 | inconclusive [inhibitor, partial curve] | 
O=C(CCC(=O)Nc1ccc(Br)cc1)N/N=C/c1ccc(O)cc1 |  | inconclusive: -30.9% [inhibitor]
CCN(c1cc(C)cc(C)c1)S(=O)(=O)c1nnc(NC(=O)c2ccco2)s1 | inconclusive [inhibitor, single point] | 
Cc1cccc(C)c1NC(=O)C(c1cccc2ccccc12)n1c(=O)c(-c2cc3ccccc3[nH]2)nc2ccccc21 (stereo not given) | active: 9.2 µM | 
COc1ccc(-c2[nH]c(-c3cccc(OC)c3)nc2SCC(=O)NCc2ccco2)cc1 | inconclusive [inhibitor, single point] | 
COc1cc(/C=C2\SC(=S)N(CC(=O)Nc3ccccn3)C2=O)cc(OC)c1OC | inconclusive [inhibitor, single point] | 
C[C@H]1OC(=O)CC[C@@H]2[C@]1(C)CCC1[C@@]2(C)CC[C@@]2(C)C3CC(C)(C)CC[C@]3(CO)CC[C@]12C (stereo not given in full) | inconclusive [inhibitor, partial curve, poor fit] | 
CN(C(=O)c1ccc(NC(=O)Cc2cccc(NC(=O)C3CCN(C(=O)CCc4ccccc4)CC3)c2)cc1)C1CCCC1 | inconclusive [inhibitor, single point] | 

Structure (SMILES) | Potency | activity change, negative = growth inhibition
NC(=O)CCN(C(=O)c1cccc(S(=O)(=O)N2CCc3ccccc32)c1)c1ccccc1 | inconclusive [inhibitor, single point] | 
COc1ccc2[nH]cc(CCNC(=O)c3cnn(-c4ccccc4Cl)c3C3CCN(C(=O)OC(C)(C)C)CC3)c2c1 | active: 10.3 µM | 
COc1ccc2[nH]c3nc(SCc4nnc(-c5ccccc5)o4)nnc3c2c1 | inconclusive [inhibitor, partial curve] | 
CC(=O)OC1CCC2(C)C3=CCC4(C)C(C(C)=O)=CCC4C3CCC2C1 (stereo not given) | inconclusive [inhibitor, single point] | 
O=C(Nc1ccnn1C1CCN(CCCC2CCCC2)CC1)c1ccccc1Cl | inconclusive [inhibitor, single point] | 
O=S(=O)(/N=C(\Sc1ccc(Cl)cc1)c1ccccc1)c1ccccc1 | active: 20.6 µM | 
Cc1cccc(N2CCN(C(=O)c3ccc(NC(=O)c4nsc5ccccc45)cc3)CC2)c1C | inconclusive [inhibitor, single point] | 
COc1cc(S(=O)(=O)NCc2cccnc2)c(OC)cc1Br | inactive | 
CCc1ccccc1NC(=O)Cc1ccc(-n2cccc2)cc1 | inconclusive [inhibitor, single point] | 
Cc1nc2c(C(=O)NCCc3ccccc3)c[nH]n2c(=O)c1Cc1ccc(F)cc1Cl | inconclusive [inhibitor, partial curve, poor fit] | 
CCCn1c(Cc2ccccc2)n[nH]c1=S | inactive | 
COC(=O)C1CCN(S(=O)(=O)CCNC(=O)c2ccccc2)CC1 | inactive | 
CCOC(=O)C1=CC[C@@H](c2ccccc2)N(S(=O)(=O)c2ccc(C)cc2)[C@H]1C#N | inconclusive [inhibitor, single point] | 
COc1ccc(-c2cc(C(=O)N3CCOCC3)no2)cc1 | inactive | 
COC(=O)CC1COc2ccccc2N1C(=O)/C=C/c1ccccc1 (stereo not given) | inconclusive [inhibitor, single point] | 
O=C(C1CC(=O)N(c2ccc(F)cc2)C1)N1CCOCC1 (stereo not given) | inactive | 
CCCCOCCCNS(=O)(=O)c1ccccc1 | inactive | 
C#CCN(Cc1ccco1)C(=O)c1cc(COc2ccc(F)cc2Cl)on1 | inconclusive [inhibitor, partial curve] | 
Cc1cccc(N2CCN(C(=O)c3ccc4c(c3)NC(=O)C(CSCc3cccc(F)c3)N4)CC2C)c1 (stereo not given) | inconclusive [inhibitor, single point] | 
CC(C)(C)C1CCC(C(=O)OCC(=O)c2ccc[nH]2)CC1 (stereo not given) | inactive | 
Cc1cc2nc(-c3cccc(NC(=O)c4ccc(Br)o4)c3C)oc2cc1C | active: 23.1 µM | 
CCN(CC)c1ccc(S(=O)(=O)N2CCOCC2)cc1NC(=O)CSc1ccccc1 | inconclusive [inhibitor, single point] | 

Structure (SMILES) | Potency | activity change, negative = growth inhibition
Cc1csc2c(N3CCN(C(=S)Nc4ccc(C(F)(F)F)cc4)CC3)ncnc12 | inconclusive [inhibitor, partial curve] | 
CCCCCCCCCCCCN1[C@@H](CC(C)=O)c2cc(F)ccc2S1(=O)=O | inconclusive [inhibitor, single point] | 
CCOc1ccc(N(CC(=O)N2CC=C(c3ccccc3)CC2)S(=O)(=O)c2c(C)noc2C)cc1 | inconclusive [inhibitor, single point] | 
Cc1ccc(CCNC(=O)c2ccc3c(c2)c(C)c(C)n3Cc2ccccc2)cc1 | inconclusive [inhibitor, single point] | 
CCN(C[C@H]1N[C@@](C)(C(=O)OC)[C@H]2C(=O)N(C)C(=O)[C@@H]12)S(=O)(=O)c1ccc(-c2ccccc2)cc1 | inconclusive [inhibitor, full curve, poor fit] | 
Cn1c(Sc2ccc(Br)cc2)c(C=O)c2ccccc21 | active: 13 µM | 
COc1ccc(C2OC(CCc3ccccc3)CC3=C2C(=O)OC(C)(C)O3)cc1 (stereo not given) | inconclusive [inhibitor, single point] | 
COCCN(CC(=O)Nc1cccc(C)c1C)C(=O)c1ccc(S(=O)(=O)N2CCOCC2)cc1 | inactive | 
Nc1cc(C(=O)N2CCN(c3cccc(Cl)c3)CC2)ccc1N1CC2CC(C1)c1cccc(=O)n1C2 (stereo not given) | inconclusive [inhibitor, single point] | 
O=S(=O)(NCC(c1ccco1)N1CCN(c2ccccc2F)CC1)c1ccc2c(c1)OCCO2 (stereo not given) | inconclusive [inhibitor, single point] | 
O=C(COC(=O)C1CCN(S(=O)(=O)c2cccc3cccnc23)CC1)c1ccc([N+](=O)[O-])cc1 | inconclusive [inhibitor, single point] | 
COCCNC(=O)/C(C#N)=C/c1cccc(NC(=O)c2ccccc2Cl)c1 | inconclusive [inhibitor, partial curve] | 
O=C(NCC1CCOCC1)c1cccc2c(-c3cccnc3)coc12 | inconclusive [inhibitor, partial curve, poor fit] | 
CCc1nc2c(cnn2-c2ccc(Cl)cc2)c(=O)n1-c1ccc(OC)c(Cl)c1 | inconclusive [inhibitor, single point] | 
CC(=O)Nc1ccc(Nc2ccc3nonc3c2[N+](=O)[O-])cc1 | inconclusive [inhibitor, partial curve] | 
COc1ccccc1N1CCN(C(=O)c2cc(-c3ccc(Cl)cc3)on2)CC1 | inconclusive [inhibitor, single point] | 
CCOc1ccc(N2CC(c3nc4ccccc4n3Cc3cccc(C)c3)CC2=O)cc1 (stereo not given) | inconclusive [inhibitor, single point] | 
COc1ccc(CNc2ccc([N+](=O)[O-])cc2C)cc1 | inactive | 
COc1ccc(CN2C(=O)C(C)Nc3ncnc(N4CCOCC4)c32)cc1 (stereo not given) | inconclusive [inhibitor, single point] | 
COC(=O)COc1cccc(NC(=O)c2ccc(C)cc2)c1 | inactive | 
CCCn1c(CCC(=O)Nc2cccc(CC)c2)nc2cccnc21 | inconclusive [inhibitor, single point] | 
